From paper PMC4329010
These are yes or no findings as the source states them, for the method shown. In cells and extracts the contact can be indirect. Some entries that bind do so weakly or less than the wild type. Tags and fused reporters may be left off the sequences shown.

T1: Flag-SNW1 (human) (UniProt Q13573)
T1 sequence: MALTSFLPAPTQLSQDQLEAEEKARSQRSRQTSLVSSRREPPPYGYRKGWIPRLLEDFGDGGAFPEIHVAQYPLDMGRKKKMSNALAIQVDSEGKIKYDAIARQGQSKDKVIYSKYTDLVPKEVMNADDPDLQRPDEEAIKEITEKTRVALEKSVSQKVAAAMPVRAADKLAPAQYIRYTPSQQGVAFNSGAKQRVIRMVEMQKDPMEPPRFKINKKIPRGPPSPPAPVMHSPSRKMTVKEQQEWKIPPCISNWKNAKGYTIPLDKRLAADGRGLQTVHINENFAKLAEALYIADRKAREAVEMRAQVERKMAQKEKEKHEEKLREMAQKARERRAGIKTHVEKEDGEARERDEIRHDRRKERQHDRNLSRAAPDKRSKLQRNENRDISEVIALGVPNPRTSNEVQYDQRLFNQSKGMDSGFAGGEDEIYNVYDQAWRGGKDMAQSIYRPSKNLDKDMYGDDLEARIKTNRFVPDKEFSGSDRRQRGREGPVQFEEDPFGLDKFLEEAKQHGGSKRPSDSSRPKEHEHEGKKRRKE

T2: Flag-tagged full-length EFTUD2 (human) (UniProt Q15029)
T2 sequence: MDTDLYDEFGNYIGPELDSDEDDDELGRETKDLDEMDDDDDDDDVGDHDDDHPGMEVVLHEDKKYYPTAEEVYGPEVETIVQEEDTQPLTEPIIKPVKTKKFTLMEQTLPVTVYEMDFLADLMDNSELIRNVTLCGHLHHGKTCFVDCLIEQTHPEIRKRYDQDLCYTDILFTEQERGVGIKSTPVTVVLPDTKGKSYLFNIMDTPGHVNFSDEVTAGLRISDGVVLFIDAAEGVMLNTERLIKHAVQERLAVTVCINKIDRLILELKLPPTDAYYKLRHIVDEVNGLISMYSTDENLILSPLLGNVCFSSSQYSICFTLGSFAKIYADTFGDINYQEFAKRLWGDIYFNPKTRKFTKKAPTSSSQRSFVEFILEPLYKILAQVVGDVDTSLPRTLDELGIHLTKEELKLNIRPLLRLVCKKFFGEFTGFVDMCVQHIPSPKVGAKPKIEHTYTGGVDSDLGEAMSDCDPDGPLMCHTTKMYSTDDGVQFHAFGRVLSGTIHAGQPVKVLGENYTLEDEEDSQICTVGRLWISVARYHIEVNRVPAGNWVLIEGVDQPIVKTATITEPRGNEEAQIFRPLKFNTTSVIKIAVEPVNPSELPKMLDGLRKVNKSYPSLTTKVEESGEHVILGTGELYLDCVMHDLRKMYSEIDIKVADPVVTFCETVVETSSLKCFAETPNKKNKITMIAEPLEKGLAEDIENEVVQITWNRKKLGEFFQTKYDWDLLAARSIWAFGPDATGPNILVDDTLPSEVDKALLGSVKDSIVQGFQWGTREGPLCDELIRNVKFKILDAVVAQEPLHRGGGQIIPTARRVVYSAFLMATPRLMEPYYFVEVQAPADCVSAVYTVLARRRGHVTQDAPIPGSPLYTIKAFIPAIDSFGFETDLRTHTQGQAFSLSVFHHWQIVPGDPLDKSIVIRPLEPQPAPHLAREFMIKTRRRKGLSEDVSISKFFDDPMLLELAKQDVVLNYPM

T3: Flag-tagged EFTUD2-1-260 (human) (UniProt Q15029)
T3 sequence: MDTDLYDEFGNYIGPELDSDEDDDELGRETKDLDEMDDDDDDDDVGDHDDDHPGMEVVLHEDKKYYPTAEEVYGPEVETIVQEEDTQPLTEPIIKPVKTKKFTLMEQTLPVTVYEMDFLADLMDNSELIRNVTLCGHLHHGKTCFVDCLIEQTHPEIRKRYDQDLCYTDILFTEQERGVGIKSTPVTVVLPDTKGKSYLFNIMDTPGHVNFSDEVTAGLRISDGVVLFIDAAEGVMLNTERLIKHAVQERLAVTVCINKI

T4: GST-fused SNW1-174-335 (human) (UniProt Q13573)
T4 sequence: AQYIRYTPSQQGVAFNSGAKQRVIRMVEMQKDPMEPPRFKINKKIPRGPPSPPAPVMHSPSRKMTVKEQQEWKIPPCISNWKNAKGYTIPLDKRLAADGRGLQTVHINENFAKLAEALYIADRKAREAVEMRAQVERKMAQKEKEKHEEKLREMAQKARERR


Tests used:
[1] = biological target: T1, Flag-SNW1 (human); test: co-IP; 293T cells constitutively expressing Flag tag or Flag-SNW1, immunoprecipitated with anti-Flag antibody, immunoblotted with antibodies for the endogenous proteins
[2] = biological target: T2, Flag-tagged full-length EFTUD2 (human); test: co-IP; 293T cells co-transfected with Flag- and GFP-tagged constructs, lysed after 24 h, immunoprecipitated with anti-Flag antibody, washed four times with lysis buffer, immunoblotted with anti-GFP antibody
[3] = biological target: T1, Flag-SNW1 (human); test: as above
[4] = biological target: T3, Flag-tagged EFTUD2-1-260 (human); test: as above
[5] = biological target: T4, GST-fused SNW1-174-335 (human); test: pull-down; GST-fused SNW1-174-335 bound to glutathione agarose beads mixed with in vitro-translated HA-tagged proteins for 1 h, washed four times with lysis buffer, immunoblot; only the target purified

Molecule	binding [3]	binding [5]	other results
SNRNP200 (endogenous) (from UniProt O75643 1-2136)	–	–	binding [1]: binds
GFP-SNRNP200 (from UniProt O75643 1-2136)	binds	–	binding [2]: binds; binding [4]: no binding
GFP-EFTUD2-1-260 (domain or fragment, UniProt Q15029 1-260) MDTDLYDEFGNYIGPELDSDEDDDELGRETKDLDEMDDDDDDDDVGDHDDDHPGMEVVLHEDKKYYPTAEEVYGPEVETIVQEEDTQPLTEPIIKPVKTKKFTLMEQTLPVTVYEMDFLADLMDNSELIRNVTLCGHLHHGKTCFVDCLIEQTHPEIRKRYDQDLCYTDILFTEQERGVGIKSTPVTVVLPDTKGKSYLFNIMDTPGHVNFSDEVTAGLRISDGVVLFIDAAEGVMLNTERLIKHAVQERLAVTVCINKI	binds	–	–
In vitro-translated HA-tagged EFTUD2-1-260 (domain or fragment, UniProt Q15029 1-260) MDTDLYDEFGNYIGPELDSDEDDDELGRETKDLDEMDDDDDDDDVGDHDDDHPGMEVVLHEDKKYYPTAEEVYGPEVETIVQEEDTQPLTEPIIKPVKTKKFTLMEQTLPVTVYEMDFLADLMDNSELIRNVTLCGHLHHGKTCFVDCLIEQTHPEIRKRYDQDLCYTDILFTEQERGVGIKSTPVTVVLPDTKGKSYLFNIMDTPGHVNFSDEVTAGLRISDGVVLFIDAAEGVMLNTERLIKHAVQERLAVTVCINKI	–	binds	–
GFP-tagged SNRNP200 1287-1606 (domain or fragment, UniProt O75643 1287-1606) RHLILPEKYPPPTELLDLQPLPVSALRNSAFESLYQDKFPFFNPIQTQVFNTVYNSDDNVFVGAPTGSGKTICAEFAILRMLLQSSEGRCVYITPMEALAEQVYMDWYEKFQDRLNKKVVLLTGETSTDLKLLGKGNIIISTPEKWDILSRRWKQRKNVQNINLFVVDEVHLIGGENGPVLEVICSRMRYISSQIERPIRIVALSSSLSNAKDVAHWLGCSATSTFNFHPNVRPVPLELHIQGFNISHTQTRLLSMAKPVYHAITKHSPKKPVIVFVPSRKQTRLTAIDILTTCAADIQRQRFLHCTEKDLIPYLEKLSD	binds	–	–
GFP-tagged SNRNP200 1607-2136 (domain or fragment, UniProt O75643 1607-2136) STLKETLLNGVGYLHEGLSPMERRLVEQLFSSGAIQVVVASRSLCWGMNVAAHLVIIMDTQYYNGKIHAYVDYPIYDVLQMVGHANRPLQDDEGRCVIMCQGSKKDFFKKFLYEPLPVESHLDHCMHDHFNAEIVTKTIENKQDAVDYLTWTFLYRRMTQNPNYYNLQGISHRHLSDHLSELVEQTLSDLEQSKCISIEDEMDVAPLNLGMIAAYYYINYTTIELFSMSLNAKTKVRGLIEIISNAAEYENIPIRHHEDNLLRQLAQKVPHKLNNPKFNDPHVKTNLLLQAHLSRMQLSAELQSDTEEILSKAIRLIQACVDVLSSNGWLSPALAAMELAQMVTQAMWSKDSYLKQLPHFTSEHIKRCTDKGVESVFDIMEMEDEERNALLQLTDSQIADVARFCNRYPNIELSYEVVDKDSIRSGGPVVVLVQLEREEEVTGPVIAPLFPQKREEGWWVVIGDAKSNSLISIKRLTLQQKAKVKLDFVAPATGAHNYTLYFMSDAYMGCDQEYKFSVDVKEAETDSDSD	binds	–	–
In vitro-translated HA-tagged SNRNP200 1287-1606 (domain or fragment, UniProt O75643 1287-1606) RHLILPEKYPPPTELLDLQPLPVSALRNSAFESLYQDKFPFFNPIQTQVFNTVYNSDDNVFVGAPTGSGKTICAEFAILRMLLQSSEGRCVYITPMEALAEQVYMDWYEKFQDRLNKKVVLLTGETSTDLKLLGKGNIIISTPEKWDILSRRWKQRKNVQNINLFVVDEVHLIGGENGPVLEVICSRMRYISSQIERPIRIVALSSSLSNAKDVAHWLGCSATSTFNFHPNVRPVPLELHIQGFNISHTQTRLLSMAKPVYHAITKHSPKKPVIVFVPSRKQTRLTAIDILTTCAADIQRQRFLHCTEKDLIPYLEKLSD	–	binds	–
In vitro-translated HA-tagged SNRNP200 1607-2136 (domain or fragment, UniProt O75643 1607-2136) STLKETLLNGVGYLHEGLSPMERRLVEQLFSSGAIQVVVASRSLCWGMNVAAHLVIIMDTQYYNGKIHAYVDYPIYDVLQMVGHANRPLQDDEGRCVIMCQGSKKDFFKKFLYEPLPVESHLDHCMHDHFNAEIVTKTIENKQDAVDYLTWTFLYRRMTQNPNYYNLQGISHRHLSDHLSELVEQTLSDLEQSKCISIEDEMDVAPLNLGMIAAYYYINYTTIELFSMSLNAKTKVRGLIEIISNAAEYENIPIRHHEDNLLRQLAQKVPHKLNNPKFNDPHVKTNLLLQAHLSRMQLSAELQSDTEEILSKAIRLIQACVDVLSSNGWLSPALAAMELAQMVTQAMWSKDSYLKQLPHFTSEHIKRCTDKGVESVFDIMEMEDEERNALLQLTDSQIADVARFCNRYPNIELSYEVVDKDSIRSGGPVVVLVQLEREEEVTGPVIAPLFPQKREEGWWVVIGDAKSNSLISIKRLTLQQKAKVKLDFVAPATGAHNYTLYFMSDAYMGCDQEYKFSVDVKEAETDSDSD	–	binds	–
